{"source": "PubChem BioAssay AID2094", "about": "(Broad Institute, 2009)", "note": "About 1,200 (0.4%) of roughly 300,000 compounds were called active. Inconclusive means that the source gave no clear call. Such entries were picked first, then a sample of the others. No stated cut-off is given here; in the data, active means activity change below about -75% (passing the limit was not always enough); inconclusive means no clear call, values can overlap the other calls."}
{"assay": "Vibrio harveyi AI-2 quorum sensing modulators, primary screen, JMH597 strain, luminescence/OD600 ratio (AID 2094);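 further: luminescence divided by OD600 gain over 9 h not by final OD600 alone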", "conditions": "Vibrio harveyi JMH597 AI-2 luminescence/OD600 ratio, 9 h; at 7.5 µM; stronger effect = lower value; 0 = neutral-control median; strain lacks LuxN and CqsS sensors"}
{"smiles": "CC1CCN(CCNC(=O)C2CCCN(c3ncnc4c3nc3n4CCCCC3)C2)CC1", "note": "(stereo not drawn)", "activity change": "inactive: 1.97%"}
{"smiles": "O=C(COC(=O)c1ccc(Cl)cc1[N+](=O)[O-])NNC(=O)c1cccs1", "activity change": "inconclusive: -38.2%"}
{"smiles": "O=[N+]([O-])c1ccc(Cl)cc1Sc1nc2ccccc2o1", "activity change": "inconclusive: -82.9%"}
{"smiles": "O=C(Nc1nnc(-c2ccccc2)o1)C1CCCCC1", "activity change": "inconclusive: -73.1%"}
{"smiles": "O=C(CN1C(=O)c2ccccc2C1=O)Nc1cccc(O)c1", "activity change": "inconclusive: -73.6%"}
{"smiles": "Oc1c(Br)cc(Br)cc1CNc1cnc2ccccc2c1", "activity change": "inconclusive: -70%"}
{"smiles": "COC(=O)c1ccccc1NC(=S)NC(=O)c1ccccc1", "activity change": "inconclusive: -85.4%"}
{"smiles": "Cc1ccc(-c2nnc(NC(=O)c3ccc([N+](=O)[O-])o3)o2)c(C)c1", "activity change": "inconclusive: -80.2%"}
{"smiles": "CC(C)(C)c1ccc(OCC(=O)NCc2ccco2)cc1", "activity change": "inconclusive: -76.8%"}
{"smiles": "O=C(Nc1ccc2c(c1)OCO2)c1cnn2cccnc12", "activity change": "inactive: 9.62%"}
{"smiles": "O=C(O)c1ccc(/C=N/N2CCN(c3ccccc3)CC2)cc1", "activity change": "inconclusive: -78.7%"}
{"smiles": "Cc1ccc(S(=O)(=O)/N=C(\\N)c2ccc(F)cc2)cc1", "activity change": "inconclusive: -63.3%"}
{"smiles": "COc1cc(/C=N\\NC(=O)Cn2nnc3ccccc32)cc(OC)c1OC", "activity change": "active: -87.1%"}
{"smiles": "O=C(C#Cc1ccccc1)Nc1cccc(F)c1", "activity change": "inconclusive: -74.7%"}
{"smiles": "O=C(COc1ccc2ccccc2c1)NCCc1ccc2c(c1)OCCO2", "activity change": "inconclusive: -70.5%"}
{"smiles": "Cc1ccc(NC(=O)CN2C(=O)c3ccccc3S2(=O)=O)cc1C", "activity change": "inconclusive: -74.4%"}
{"smiles": "Cn1c(SCC(=O)Nc2ccc3cn[nH]c3c2)nnc1-c1cccs1", "activity change": "inconclusive: -141%"}
{"smiles": "COc1ccc(NC(=O)C(c2cc3c(cc2[N+](=O)[O-])OCO3)N2CCN(C=O)CC2)cc1", "note": "(stereo not drawn)", "activity change": "inconclusive: -361%"}
{"smiles": "COc1ccc(CCNC(=O)C(=O)NCc2ccccn2)cc1", "activity change": "active: -79%"}
{"smiles": "O=C(c1cc(COc2c(F)cccc2F)on1)N1CCc2ccccc2C1", "activity change": "inconclusive: -77.1%"}
{"smiles": "Cn1c2c(c(=O)n(C)c1=O)[C@@]1(C(=O)Nc3ccccc31)C(C#N)=C(N)O2", "activity change": "active: -91.8%"}
{"smiles": "CCCC(C)c1nnc(NC(=O)CN2C(=O)c3ccccc3C2=O)s1", "note": "(stereo not drawn)", "activity change": "active: -88%"}
{"smiles": "Cc1cccnc1NC(=S)Nc1ccc(Br)cc1Cl", "activity change": "inactive: 4.11%"}
{"smiles": "Cc1ccc2cc3c(N)[nH]nc3nc2c1", "activity change": "inactive: 11.9%"}
{"smiles": "O=C(N=C1SC2CS(=O)(=O)CC2N1CCc1ccc(F)cc1)C1CCCCC1", "note": "(stereo not drawn)", "activity change": "inactive: 10.5%"}
{"smiles": "Cc1ccc(NC(=O)c2ccc([N+](=O)[O-])o2)cc1C", "activity change": "inconclusive: -80.1%"}
{"smiles": "O=C(N/N=C/c1cc(Cl)cc([N+](=O)[O-])c1O)C1CC1", "activity change": "inconclusive: -35.3%"}
{"smiles": "Cc1cc(C(=O)OCC(=O)Nc2ccc(F)cc2)c(C)o1", "activity change": "active: -81.6%"}
{"smiles": "COc1cccc(-c2nc(C(N)=O)c3[nH]c(=O)n(-c4ccccc4)c3n2)c1OC", "activity change": "inactive: 41.9%"}
{"smiles": "CC(C)c1nnc(NC(=O)CN2C(=O)c3ccccc3C2=O)s1", "activity change": "inconclusive: -73.6%"}
{"smiles": "CCCN1CNC(=S)N(CC2CCCO2)C1", "note": "(stereo not drawn)", "activity change": "inactive: -0.152%"}
{"smiles": "O=C(Nc1ccccc1C(=O)O)c1cncc(Br)c1", "activity change": "inactive: 7.42%"}
{"smiles": "O=C1NC(c2cc(Cl)cc([N+](=O)[O-])c2O)Nc2ccccc21", "note": "(stereo not drawn)", "activity change": "inconclusive: -77.4%"}
{"smiles": "O=C(NCc1ccccc1)c1cc2ccccc2o1", "activity change": "active: -86.1%"}
{"smiles": "N[C@@H](CO)c1nnc([C@H](CC(=O)O)NC(=O)C2CCNCC2)o1", "activity change": "inactive: 2.17%"}
{"smiles": "CC(C)(C)C(=O)CC(=O)Nc1ccc(Cl)c(N)c1", "activity change": "inconclusive: -244%"}
{"smiles": "O=S(=O)(Nc1ccc(OC(F)(F)F)cc1)c1cccc2nonc12", "activity change": "inconclusive: -69.3%"}
{"smiles": "C=CCNC(=O)O/N=C/c1csc([N+](=O)[O-])c1", "activity change": "inconclusive: -32.4%"}
{"smiles": "O=C1CSC(c2ccc(F)c(F)c2)N1c1ccccc1F", "note": "(stereo not drawn)", "activity change": "inactive: 33.2%"}
{"smiles": "O=C(/C=C/c1ccccc1)Nn1cnc2ccccc2c1=O", "activity change": "active: -88%"}
{"smiles": "CCOCCCN1C(=O)C(O)=C(C(C)=O)C1c1cccs1", "note": "(stereo not drawn)", "activity change": "inactive: 22.4%"}
{"smiles": "CCc1nnc(NC(=O)CN2C(=O)c3ccccc3C2=O)s1", "activity change": "inconclusive: -74.4%"}
{"smiles": "COc1cc(/C=C2\\CC/C(=C\\c3cc(OC)c(OC)c(OC)c3)C2=O)cc(OC)c1OC", "activity change": "inactive: 13.5%"}
{"smiles": "CC1=Nc2cc(C(=O)NCc3ccco3)ccc2Sc2ccc(C)cc21", "activity change": "active: -98.4%"}
{"smiles": "COc1ccc(-c2c(C#N)c(N)nc3c2c(=O)n(C)c(=O)n3C)cc1", "activity change": "inconclusive: -574%"}
{"smiles": "O=C1c2ccccc2NC(c2ccc(-c3ccc(Br)cc3)o2)N1O", "note": "(stereo not drawn)", "activity change": "inconclusive: -63.3%"}
{"smiles": "CC(OC(=O)c1cnccn1)C(=O)c1ccccc1", "note": "(stereo not drawn)", "activity change": "inactive: 4.59%"}
{"smiles": "COc1ccc(-c2nnc(Nc3nc4c(OC)cccc4s3)o2)cc1", "activity change": "inconclusive: 5.88%"}
